For assay [1], the target named is T1, phospho-S265-JMJD1A (V5-tagged WT-hJMJD1A from ISO-treated cells) (human) (UniProt Q9Y4C1).
T1 sequence (chain, phosphoserine at 265): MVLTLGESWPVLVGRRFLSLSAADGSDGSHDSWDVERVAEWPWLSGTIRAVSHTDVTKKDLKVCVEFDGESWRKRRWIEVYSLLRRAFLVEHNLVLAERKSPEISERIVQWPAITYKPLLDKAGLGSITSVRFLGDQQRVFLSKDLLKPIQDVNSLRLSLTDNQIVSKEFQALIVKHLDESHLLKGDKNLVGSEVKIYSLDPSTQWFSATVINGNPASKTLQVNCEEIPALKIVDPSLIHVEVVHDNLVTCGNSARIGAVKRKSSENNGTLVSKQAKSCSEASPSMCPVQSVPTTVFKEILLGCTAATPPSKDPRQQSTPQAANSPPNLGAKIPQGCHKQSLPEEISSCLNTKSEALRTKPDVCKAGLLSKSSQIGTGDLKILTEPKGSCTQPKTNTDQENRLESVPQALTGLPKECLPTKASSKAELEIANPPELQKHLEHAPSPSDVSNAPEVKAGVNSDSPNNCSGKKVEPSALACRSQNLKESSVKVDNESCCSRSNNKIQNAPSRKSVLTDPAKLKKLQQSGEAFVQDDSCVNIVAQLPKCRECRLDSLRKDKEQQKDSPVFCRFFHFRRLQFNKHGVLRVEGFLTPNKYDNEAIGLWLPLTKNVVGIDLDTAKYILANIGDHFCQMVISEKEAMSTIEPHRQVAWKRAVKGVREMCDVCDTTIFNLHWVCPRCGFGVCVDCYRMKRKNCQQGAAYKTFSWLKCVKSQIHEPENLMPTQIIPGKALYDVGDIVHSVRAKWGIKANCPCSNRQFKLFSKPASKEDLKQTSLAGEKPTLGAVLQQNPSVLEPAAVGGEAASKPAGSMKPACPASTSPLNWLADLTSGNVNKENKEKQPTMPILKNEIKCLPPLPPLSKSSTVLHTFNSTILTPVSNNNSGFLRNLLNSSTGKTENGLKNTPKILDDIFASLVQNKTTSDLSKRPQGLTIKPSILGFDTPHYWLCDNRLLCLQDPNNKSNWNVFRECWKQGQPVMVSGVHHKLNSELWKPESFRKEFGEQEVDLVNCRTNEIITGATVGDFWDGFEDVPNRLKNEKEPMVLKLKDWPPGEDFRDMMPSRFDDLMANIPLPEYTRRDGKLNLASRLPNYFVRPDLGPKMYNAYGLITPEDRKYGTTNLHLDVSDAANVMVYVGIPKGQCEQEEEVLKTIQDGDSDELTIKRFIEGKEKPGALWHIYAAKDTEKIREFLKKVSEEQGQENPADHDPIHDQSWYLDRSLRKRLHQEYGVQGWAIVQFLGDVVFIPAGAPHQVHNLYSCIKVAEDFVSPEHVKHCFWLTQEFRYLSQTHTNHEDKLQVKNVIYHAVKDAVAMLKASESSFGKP
Description: co-IP; IP with anti-V5 from nuclear extracts of WT- or S265A-hJMJD1A-iBAT^shs treated with ISO (10 uM for 1 h) or vehicle; IB with anti-BRG1, anti-ARID1A, anti-BAF60b or anti-PPARγ; 50 mM HEPES-KOH pH 7.9, 150 mM NaCl, 1.5 mM MgCl2, 1% NP-40, 6 h at 4 °C.

Sequences of proteins named here, by UniProt entry; tags and fusion partners are left off.
UniProt A2BH40: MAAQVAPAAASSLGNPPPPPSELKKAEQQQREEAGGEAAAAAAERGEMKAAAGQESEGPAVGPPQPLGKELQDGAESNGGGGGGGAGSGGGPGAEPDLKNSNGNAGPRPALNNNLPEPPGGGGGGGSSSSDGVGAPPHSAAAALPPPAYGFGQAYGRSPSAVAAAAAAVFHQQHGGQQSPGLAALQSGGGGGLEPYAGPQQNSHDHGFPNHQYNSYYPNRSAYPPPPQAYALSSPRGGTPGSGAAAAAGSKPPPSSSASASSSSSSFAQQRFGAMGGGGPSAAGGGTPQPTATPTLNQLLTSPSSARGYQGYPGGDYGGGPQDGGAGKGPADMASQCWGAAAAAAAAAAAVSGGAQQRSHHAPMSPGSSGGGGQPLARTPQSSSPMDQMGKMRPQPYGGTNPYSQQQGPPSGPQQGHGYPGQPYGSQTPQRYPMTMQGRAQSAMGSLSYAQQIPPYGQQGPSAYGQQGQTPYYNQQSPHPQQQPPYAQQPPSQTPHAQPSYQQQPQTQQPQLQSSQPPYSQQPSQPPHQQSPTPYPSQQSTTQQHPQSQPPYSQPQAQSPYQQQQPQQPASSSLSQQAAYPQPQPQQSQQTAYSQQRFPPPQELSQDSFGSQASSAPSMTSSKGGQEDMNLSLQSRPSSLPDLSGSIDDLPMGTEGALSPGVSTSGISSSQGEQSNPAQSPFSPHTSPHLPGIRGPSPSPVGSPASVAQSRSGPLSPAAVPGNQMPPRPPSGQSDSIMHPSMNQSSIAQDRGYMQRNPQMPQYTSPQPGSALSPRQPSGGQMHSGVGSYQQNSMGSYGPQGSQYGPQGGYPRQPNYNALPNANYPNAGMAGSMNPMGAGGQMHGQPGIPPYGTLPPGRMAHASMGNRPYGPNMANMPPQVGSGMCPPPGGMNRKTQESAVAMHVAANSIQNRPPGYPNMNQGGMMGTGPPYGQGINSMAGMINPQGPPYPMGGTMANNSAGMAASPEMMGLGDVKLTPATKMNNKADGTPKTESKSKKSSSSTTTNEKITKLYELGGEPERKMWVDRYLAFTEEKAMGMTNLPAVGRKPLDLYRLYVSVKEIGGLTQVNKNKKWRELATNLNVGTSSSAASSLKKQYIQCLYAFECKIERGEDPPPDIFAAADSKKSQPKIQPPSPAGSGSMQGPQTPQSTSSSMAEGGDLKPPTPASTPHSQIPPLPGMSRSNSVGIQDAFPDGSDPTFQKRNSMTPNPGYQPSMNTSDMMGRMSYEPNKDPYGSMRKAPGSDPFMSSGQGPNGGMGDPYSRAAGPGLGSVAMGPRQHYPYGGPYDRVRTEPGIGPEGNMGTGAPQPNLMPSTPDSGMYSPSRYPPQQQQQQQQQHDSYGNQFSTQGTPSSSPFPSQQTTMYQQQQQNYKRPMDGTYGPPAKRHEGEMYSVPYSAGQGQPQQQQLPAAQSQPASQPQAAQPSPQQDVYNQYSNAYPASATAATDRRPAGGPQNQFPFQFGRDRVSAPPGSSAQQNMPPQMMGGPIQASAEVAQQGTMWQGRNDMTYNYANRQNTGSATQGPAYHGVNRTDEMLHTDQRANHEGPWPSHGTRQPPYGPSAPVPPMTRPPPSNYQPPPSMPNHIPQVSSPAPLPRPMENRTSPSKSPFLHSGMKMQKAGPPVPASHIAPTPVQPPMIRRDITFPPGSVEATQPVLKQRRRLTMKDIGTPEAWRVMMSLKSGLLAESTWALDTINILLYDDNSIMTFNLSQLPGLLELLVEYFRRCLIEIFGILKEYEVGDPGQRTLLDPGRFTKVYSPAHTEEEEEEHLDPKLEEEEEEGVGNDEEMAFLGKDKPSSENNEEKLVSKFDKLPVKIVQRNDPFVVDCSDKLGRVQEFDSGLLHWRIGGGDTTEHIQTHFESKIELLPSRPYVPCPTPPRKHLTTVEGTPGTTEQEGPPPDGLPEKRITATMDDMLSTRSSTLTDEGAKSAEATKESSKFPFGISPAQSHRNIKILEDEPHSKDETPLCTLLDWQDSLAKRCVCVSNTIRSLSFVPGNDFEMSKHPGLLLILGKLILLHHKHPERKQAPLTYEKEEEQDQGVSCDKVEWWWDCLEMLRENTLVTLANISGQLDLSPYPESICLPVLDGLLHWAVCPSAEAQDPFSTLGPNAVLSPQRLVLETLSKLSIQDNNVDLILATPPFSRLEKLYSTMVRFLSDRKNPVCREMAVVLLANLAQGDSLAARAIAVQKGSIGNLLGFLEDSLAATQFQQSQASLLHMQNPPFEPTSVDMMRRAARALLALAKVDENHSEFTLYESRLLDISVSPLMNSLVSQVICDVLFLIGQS
UniProt Q3TKT4: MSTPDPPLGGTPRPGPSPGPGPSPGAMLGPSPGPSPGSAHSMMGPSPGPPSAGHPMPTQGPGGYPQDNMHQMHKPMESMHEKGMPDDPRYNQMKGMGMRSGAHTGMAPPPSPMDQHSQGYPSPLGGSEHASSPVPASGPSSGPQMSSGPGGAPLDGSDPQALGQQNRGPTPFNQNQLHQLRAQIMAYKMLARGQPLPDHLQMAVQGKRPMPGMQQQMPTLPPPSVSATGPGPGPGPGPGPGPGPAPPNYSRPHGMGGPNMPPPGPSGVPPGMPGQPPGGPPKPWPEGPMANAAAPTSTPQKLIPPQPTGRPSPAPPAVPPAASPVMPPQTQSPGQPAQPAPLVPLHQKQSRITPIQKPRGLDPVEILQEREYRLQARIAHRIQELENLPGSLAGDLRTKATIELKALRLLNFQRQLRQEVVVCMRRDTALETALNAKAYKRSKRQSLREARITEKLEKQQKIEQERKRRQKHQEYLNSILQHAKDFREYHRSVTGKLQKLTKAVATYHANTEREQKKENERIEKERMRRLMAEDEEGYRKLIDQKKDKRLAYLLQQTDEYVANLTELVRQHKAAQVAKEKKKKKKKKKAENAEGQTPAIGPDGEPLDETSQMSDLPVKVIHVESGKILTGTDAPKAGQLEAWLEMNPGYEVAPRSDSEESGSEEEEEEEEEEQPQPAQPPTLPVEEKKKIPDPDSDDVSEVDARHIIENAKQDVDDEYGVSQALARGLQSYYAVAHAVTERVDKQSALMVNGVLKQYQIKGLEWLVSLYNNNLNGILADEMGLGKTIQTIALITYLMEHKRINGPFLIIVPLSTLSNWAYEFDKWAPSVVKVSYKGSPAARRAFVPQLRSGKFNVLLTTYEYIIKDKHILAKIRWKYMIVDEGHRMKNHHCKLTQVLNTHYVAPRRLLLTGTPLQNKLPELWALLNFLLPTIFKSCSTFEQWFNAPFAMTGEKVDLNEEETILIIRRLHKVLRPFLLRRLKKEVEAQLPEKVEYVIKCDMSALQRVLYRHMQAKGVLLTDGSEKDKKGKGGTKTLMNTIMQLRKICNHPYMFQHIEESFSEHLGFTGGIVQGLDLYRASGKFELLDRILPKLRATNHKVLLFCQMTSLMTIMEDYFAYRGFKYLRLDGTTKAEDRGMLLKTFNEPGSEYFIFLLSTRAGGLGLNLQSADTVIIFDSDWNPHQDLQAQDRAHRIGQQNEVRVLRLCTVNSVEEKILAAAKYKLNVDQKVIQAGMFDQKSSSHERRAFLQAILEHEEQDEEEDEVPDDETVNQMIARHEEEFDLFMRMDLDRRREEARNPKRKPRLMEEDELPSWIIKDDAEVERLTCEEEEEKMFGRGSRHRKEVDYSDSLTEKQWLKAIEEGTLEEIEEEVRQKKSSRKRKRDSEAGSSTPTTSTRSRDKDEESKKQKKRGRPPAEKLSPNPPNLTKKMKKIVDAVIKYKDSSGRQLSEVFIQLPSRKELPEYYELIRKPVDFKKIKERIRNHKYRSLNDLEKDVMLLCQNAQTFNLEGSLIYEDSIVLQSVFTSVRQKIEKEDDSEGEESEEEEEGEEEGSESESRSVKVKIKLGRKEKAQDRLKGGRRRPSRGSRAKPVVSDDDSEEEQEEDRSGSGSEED
UniProt Q99JR8: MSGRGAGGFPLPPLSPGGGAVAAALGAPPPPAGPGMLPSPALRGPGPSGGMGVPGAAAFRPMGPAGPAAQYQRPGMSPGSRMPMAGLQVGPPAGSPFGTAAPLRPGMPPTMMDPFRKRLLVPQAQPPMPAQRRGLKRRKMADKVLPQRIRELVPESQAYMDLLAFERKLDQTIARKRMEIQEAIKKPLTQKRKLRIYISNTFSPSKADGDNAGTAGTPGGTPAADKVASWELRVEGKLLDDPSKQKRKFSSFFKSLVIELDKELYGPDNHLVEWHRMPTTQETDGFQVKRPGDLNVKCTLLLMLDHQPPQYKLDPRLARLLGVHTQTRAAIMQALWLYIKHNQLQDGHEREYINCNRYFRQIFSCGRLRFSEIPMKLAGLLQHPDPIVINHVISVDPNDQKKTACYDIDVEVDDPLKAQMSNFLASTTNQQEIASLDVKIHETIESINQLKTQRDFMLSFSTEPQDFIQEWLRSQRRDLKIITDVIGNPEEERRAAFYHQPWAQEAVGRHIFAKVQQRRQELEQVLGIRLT
UniProt P37238: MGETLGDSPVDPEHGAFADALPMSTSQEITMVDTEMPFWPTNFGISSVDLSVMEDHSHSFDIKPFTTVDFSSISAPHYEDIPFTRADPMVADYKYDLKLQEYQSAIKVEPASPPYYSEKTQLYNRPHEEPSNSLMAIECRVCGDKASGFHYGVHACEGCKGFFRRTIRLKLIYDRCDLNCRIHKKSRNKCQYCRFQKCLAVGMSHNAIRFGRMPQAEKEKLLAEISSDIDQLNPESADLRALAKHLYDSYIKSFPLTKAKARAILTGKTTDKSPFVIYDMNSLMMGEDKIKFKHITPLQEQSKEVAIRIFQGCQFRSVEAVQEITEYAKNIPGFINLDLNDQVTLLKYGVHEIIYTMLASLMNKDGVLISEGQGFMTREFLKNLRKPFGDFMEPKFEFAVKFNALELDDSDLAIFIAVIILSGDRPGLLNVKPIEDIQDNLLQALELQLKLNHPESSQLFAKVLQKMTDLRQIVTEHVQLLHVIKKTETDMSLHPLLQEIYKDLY

The target of assay [2] is T2, V5-tagged S265A-hJMJD1A (human) (UniProt Q9Y4C1).
T2 sequence: T1 sequence (chain, phosphoserine at 265) with S265A
Described as above.

For assay [3], the target named is T2, V5-tagged S265A-hJMJD1A (human). Description: co-IP; cells pre-cultured 6 h in DMEM with 0.1% bovine serum albumin, then ISO (10 uM for 1 h) or vehicle; IP of nuclear extracts with anti-V5, IB with anti-PPARγ.

Among the data in article PMC4432656 are binding values, retold here.

Positions count from the first letter of the chain named. No constants are given. Whether binding was seen depends on the method and setting. In cells and extracts the contact can be indirect. Some entries that bind do so weakly or less than the wild type. Where a sequence is shown, tags or fusion partners need not be part of it.

With “AT-rich interactive domain containing protein 1A (ARID1A) (from UniProt A2BH40 1-2283)”, the binding result in assay [1] is given as “binds”; in assay [2] it was “binds weakly”.
The like results for “BRG1 (also referred to as SMARCA4) (from UniProt Q3TKT4 1-1613)” were, in that order, “binds” and “binds weakly”.
Turning to “BRG1-associated factor of 60 kDa, subunit b (BAF60b) (from UniProt Q99JR8 1-531)”, the results for the binding result in assay [1] and in assay [2] were “binds” and “binds weakly”, respectively.
With “peroxisome proliferator-activated receptor-gamma (PPARγ) (from UniProt P37238 1-505)”, the binding result in assay [3] was “no binding”.
